{"source": "PubChem BioAssay AID686978", "about": "(National Center for Advancing Translational Sciences (NCATS), 2013)", "note": "Screen size: about 420,000 compounds; about 64,000 (15%) were called active. This list was built around the results that the source calls inconclusive (neither active nor inactive); the mix of calls is not that of the screen. Calls come from the whole dose curve; as a rule, active = well fitted inhibition curve with a large enough effect; inconclusive = small, poorly fitted or top-dose-only effect; inactive = flat fitted curve, though single readings scatter. Potencies of inconclusive entries are left out as doubtful fits. % is set by controls: 0 for no effect and ±100 for the full control effect; potency is the fitted concentration of half-maximal effect; tags give direction and shape of the fitted curve.", "data": [{"assay": "qHTS for Inhibitors of human tyrosyl-DNA phosphodiesterase 1 (TDP1): qHTS in cells in absence of CPT; note: nearly all actives have a fitted effect of over 55% in size", "conditions": "DT40 Tdp1-/- hTDP1 cells, no CPT, ATP luminescence, 48 h; activity change, negative = growth inhibition: at 46.2 µM (top of the series) unless noted", "procedure,_shortened": "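DT40 Tdp1-/-;hTDP1 cells, no CPT (DMSO vehicle only), 400 cells/well; compounds pin-transferred; ≥48 hr, 37 °C; CellTiter-Glo 30 min RT dark, luminescence read.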", "values": [{"molecule": "O=C(CCn1c(=O)c2cccn2c2cccnc21)Nc1ccccc1Br", "Potency": "inconclusive [inhibitor, single point]"}, {"molecule": "CC(C)CNc1ncnc2c1ncn2[C@H]1CN(C2CCCC2)C[C@@H](CO)O1", "activity change, negative = growth inhibition": "inconclusive: -12.3% [inhibitor]"}, {"molecule": "CCCCn1c(C)csc1=Nc1cccnc1", "Potency": "inconclusive [inhibitor, single point]"}, {"molecule": "Clc1cncc(Cl)c1N/N=C/c1ccncc1", "Potency": "inconclusive [inhibitor, partial curve]"}, {"molecule": "CN(C)c1ccc(CNC(=O)CN2C(=O)c3cccnc3Oc3ccc(Cl)cc32)cc1", "Potency": "inconclusive [inhibitor, single point]"}, {"molecule": "Cc1oc2ccc(O)c(CN3CCN(Cc4ccccc4)CC3)c2c1C(=O)Nc1ccccc1", "Potency": "inconclusive [inhibitor, single point]"}, {"molecule": "COc1cc(-c2cc(C(=O)NCc3ccc(S(N)(=O)=O)cc3)c3ccccc3n2)cc(OC)c1OC", "Potency": "inconclusive [inhibitor, partial curve, poor fit]"}, {"molecule": "CC#CCN(Cc1ccco1)C(=O)C1CCC(=O)N(CCc2cccc(F)c2)C1", "note": "(centres undefined)", "Potency": "active: 14.6 µM"}, {"molecule": "O=C(NCCOc1ccc(Cl)cc1)C1CC(=O)N(c2ccc3c(c2)OCCO3)C1", "note": "(centres undefined)", "Potency": "inactive"}, {"molecule": "CN(C)CCN(Cc1cc2cc3c(cc2[nH]c1=O)OCCO3)C(=S)NCC1CCCO1", "note": "(centres undefined)", "Potency": "inconclusive [inhibitor, single point]"}, {"molecule": "CCn1c2ccccc2c2nnc(SCc3ccccc3)nc21", "Potency": "inconclusive [inhibitor, single point]"}, {"molecule": "COCCCNC(=O)c1c(N)n(-c2cccc(S(N)(=O)=O)c2)c2nc3ccccc3nc12", "Potency": "inconclusive [inhibitor, single point]"}, {"molecule": "O=C(CN1C(=O)C2C3CCC(C3)C2C1=O)NCc1ccco1", "note": "(centres undefined)", "Potency": "inactive"}, {"molecule": "Cc1cc(C)nc(S[C@H]2C[C@@H](C(=O)N3CCN(c4ccccc4F)CC3)N(Cc3ccccc3F)C2)n1", "Potency": "inactive"}, {"molecule": "O=C(Nc1nc(-c2ccc3c(c2)OCCO3)cs1)c1ccc(Br)o1", "activity change, negative = growth inhibition": "inconclusive: -10% [inhibitor]"}, {"molecule": "CCCn1c(=O)c2ccccc2n2c(SCC(=O)N3CCc4ccccc4C3)nnc12", "Potency": "inconclusive [inhibitor, single point]"}, {"molecule": "CCOc1ccc(S(=O)(=O)N2CCN(C(=O)c3ccc(C)c(S(=O)(=O)N4CCOCC4)c3)CC2)cc1", "Potency": "active: 18.4 µM"}, {"molecule": "CCCC(=O)N(c1ccc2oc(C)c(C(C)=O)c2c1)S(=O)(=O)c1ccc(C)c([N+](=O)[O-])c1", "Potency": "active: 16.4 µM"}, {"molecule": "COc1ccc(NC(=S)N(CCc2c(C)[nH]c3ccc(C)cc23)Cc2cccnc2)cc1", "Potency": "inconclusive [inhibitor, partial curve, poor fit]"}, {"molecule": "CCOc1cc(/C=N/NC(=O)CN2CCCCC2)ccc1OCc1ccc(Cl)cc1", "Potency": "inconclusive [inhibitor, single point]"}, {"molecule": "O=C(NCCN1CCOCC1)c1ccccc1N1C(=O)[C@@H]2Cc3c([nH]c4ccccc34)C(c3ccc(F)cc3)N2C1=O", "note": "(some centres undefined)", "Potency": "inconclusive [inhibitor, single point]"}, {"molecule": "COCCOc1cc(NC(=O)CS(=O)(=O)CC(=O)N(C)C)c(Cl)cc1Cl", "Potency": "inactive"}, {"molecule": "CCc1nnc(NC(=O)C2CCCN(C(=O)c3ccc(Cl)cc3)C2)s1", "note": "(centres undefined)", "Potency": "inconclusive [inhibitor, single point]"}, {"molecule": "CC(C)CCNC(=O)c1cc(S(=O)(=O)N2CCCCC2)ccc1N1CCOCC1", "Potency": "inconclusive [inhibitor, single point]"}, {"molecule": "C[C@H](CO)N1C[C@H](C)[C@@H](CN(C)Cc2ccc(Cl)c(Cl)c2)OCc2cnnn2CCCC1=O", "Potency": "inconclusive [inhibitor, single point]"}, {"molecule": "O=C(Nc1ccc(Nc2ccccc2)cc1)N1CCOCC1", "Potency": "inconclusive [inhibitor, partial curve]"}, {"molecule": "OC1(c2ccccc2)CC(c2ccccc2)c2ccccc2O1", "note": "(centres undefined)", "Potency": "inconclusive [inhibitor, single point]"}, {"molecule": "COc1ccc(-c2nc3cnc(Nc4cccc(OC)c4)nc3n(C)c2=O)cc1", "Potency": "inconclusive [inhibitor, single point]"}, {"molecule": "O=C(Oc1ccccc1)c1cccc(COC(=O)c2cnccn2)c1", "Potency": "inactive"}, {"molecule": "O=C(NC(Cc1ccccc1)C(=O)NCc1ccccn1)c1ccco1", "note": "(centres undefined)", "Potency": "inactive"}, {"molecule": "CCNc1nc2cccnc2s1", "Potency": "inactive"}, {"molecule": "O=C(CSc1nnc(-c2cccs2)n1Cc1ccco1)Nc1ccc2c(c1)OCO2", "Potency": "inactive"}, {"molecule": "CCN(CC)S(=O)(=O)c1ccc(N2CCOCC2)c(NC(=O)c2ccc3ccccc3c2)c1", "Potency": "active: 20.6 µM"}, {"molecule": "O=C(NN1C(=O)CSC1=S)C(=O)NN1C(=O)CSC1=S", "Potency": "inconclusive [inhibitor, full curve]"}, {"molecule": "Cc1cc(C)c(C#N)c(SCc2cn3c(C)cccc3n2)n1", "Potency": "inactive"}, {"molecule": "NC(=O)C1(NC2CCCCC2)CCN(Cc2ccccc2)CC1", "Potency": "inactive"}, {"molecule": "Cc1cc(C)n(C(=O)CSc2nnc(SCC(=O)n3nc(C)cc3C)s2)n1", "Potency": "inactive"}, {"molecule": "CN(Cc1nc(Cc2cccc(F)c2)no1)CC1CCOCC1", "Potency": "inactive"}, {"molecule": "CCc1nc2ccc(C(=O)NCCCn3ccnc3)cn2c1N(C)CCCc1ccccc1", "Potency": "inconclusive [inhibitor, single point]"}, {"molecule": "COc1ccc(CCNC(=O)COc2ccc(-c3ccc(C#N)cc3)cc2)cc1", "Potency": "inconclusive [inhibitor, partial curve]"}, {"molecule": "O=S(=O)(NCCc1nnc2ccc(SCc3ccc(C(F)(F)F)cc3)nn12)c1ccccc1", "Potency": "inconclusive [inhibitor, single point]"}, {"molecule": "COc1ccc(NC(=O)CC2C(=O)N(c3cccc(OC)c3)C(=O)N2Cc2ccco2)cc1", "note": "(centres undefined)", "Potency": "inactive"}, {"molecule": "C[C@@H]1CN([C@H](C)CO)C(=O)CCCn2nncc2CO[C@@H]1CN(C)S(=O)(=O)c1cccc(C#N)c1", "Potency": "inconclusive [inhibitor, full curve]"}, {"molecule": "O=C(Nc1nc2ccc(Cl)cc2s1)c1ccco1", "Potency": "inconclusive [inhibitor, single point]"}]}]}
